Laboratory results taken from the supplement of paper PMC11417369.
This is one part of the list.

system: PfHDP1 homeodomain (GST-tagged); assay: gcPBM binding intensity (ln(normalized median fluorescence intensity)); higher = stronger DNA binding
How it was run: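 For binding intensity, the highest Masliner-normalised natural-log median intensity across replicate spots of either probe orientation was taken. Protein bound to the array was stained with Alexa488 anti-GST antibody and scanned at 488 nm. The protein, GST-tagged P. falciparum DNA-binding domains from E. coli at about 25 μg on average, had been applied for 1 h to an Agilent 4 × 180k array of primer-extended double-stranded 36-bp intergenic genomic probes and negative controls.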

Sequence	gcPBM binding intensity (ln)
ATGTCCTCAATGTTTACACACTCTTTTATATAAGTT [CACACA_site1460]	7.13
TATTTTAATTATAAATTTAAAAAAAAAAAGAAAAAA [CACACA_negctrl_site1674]	6.03
TGCTTATATATACGTGCACACATATATATAAGATAT [CACACA_site8516]	9.62
CTGGAGGATGAAAAAAGTACAAAAGGAGGAAATGTA [XGTACX_site8846]	6.55
TCTTATTTAAAAATAGCACACATTATGTATATATAT [CACACA_site2822]	7.3
AGCTCGGAAAAATTAGCATGCAAAAAAAAAAAAAAA [TGCATGCA_site658]	6.18
ATTATTATTAATAGTACACACTATGGCATTTCAATA [CACACA_site5388]	6.58
TATATAACTGTCTTCACACACACATATAAATAAATA [CACACA_site7317]	6.74
TATTTCACAACTTGTCGTACATTAATTGTATTATTT [XGTACX_site997]	6.75
ATCTTTCATCTACCAAGTACAAATTACTTTTTTTTT [XGTACX_site7001]	6.79
TTAGGTGTATATAATTGTACATTTTGGAAATTATAC [XGTACX_site5492]	6.21
TTCTTTTCTTCTACATGTACAAATATTATATATATA [XGTACX_site2996]	7.07
TTTTGGAATTTTAGCTGTACTTTTCCTATTTTGTAT [XGTACX_site7679]	6.34
TGAAACCATAAAGAATGTACACAGCGGTATAAGTTA [XGTACX_site674]	6.8
TTTTAAATAATACATACATGCATATATACACATATA [TGCATGCA_site8]	6.58
AATAAAATAAGAAGCACACAAATATTATATATAAAA [CACACA_site3980]	6.87
TTAATATATTTAAATATATATAAAATATATAATATG [CACACA_negctrl_site880]	6.19
TATATATAATATTATACACACATATATGCATAATAT [CACACA_site54]	7.56
TATTTATTTATATAAACACACATAAATATAAATATA [CACACA_site6653]	6.39
TATAGCATAAATATGTGTACATATTTATATGATATT [XGTACX_site6333]	6.48
ATATATATTTAAAAAAGTACAGAAGAAAATAACCCA [XGTACX_site642]	7.19
TTGTGTTTTACATATACATGCAAATTTTTTTTTTTA [TGCATGCA_site303]	6.22
TAAATCATTTCATGGCATTTACACAAAATTTTTTAA [CACACA_negctrl_site1260]	6.37

Sequence	gcPBM binding intensity (ln)
TTAAATTGAATTAGTTAACACACAACTTTTATTTCA [CACACA_site8921]	6.06
TCTTCATACGACTAAAAAACATTAGACTGATAAAAA [CACACA_negctrl_site628]	6.29
TATTACACATATTATACACACATATATTATATATAT [CACACA_site4951]	7.02
TAACATATTTTTAATACACACTTAAAAAAGTACTTA [CACACA_site4875]	6.3
TTTCTTTTTTCATTTACACACAATAATATAAGAATA [CACACA_site3164]	6.71
TACACAAATATATATATATATATATATATATATATA [XGTACX_negctrl_site305]	9.34
AAATACAAAATTGTTACACACATATTAAGTATGACA [CACACA_site4421]	6.18
AGTTTAGAATTTAATACACACAAAAAAAAAAAATTA [CACACA_site7698]	6.34
AACGTTCAATTTAAATGTACAAATGTATTTAAATAT [XGTACX_site315]	6.38
ACAAATAAATATATATGTACATATATTTTTTTATTT [XGTACX_site2989]	6.6
TTTTATTTATATTATACACACAAGGAAAAAAAAAAA [CACACA_site7690]	6.75
AATACCTTTTAATAATGTACAAACAAAAATTAGAGA [XGTACX_site6850]	6.54
TATATATTAAAAATAGTGCAAAATAATATATATATA [GTGCAC_site9716]	10.1
ATATATATATATATATGTACATATTCATCTTATTCT [XGTACX_site1537]	9.33
AAGGGGAGAAAAATAAACGAAATATATACATACATA [XGTACX_negctrl_site88]	6.71
TTTATGCACGCGTGCACACACATATGAAAAAAGGTA [CACACA_site3315]	11
TATGTTTAAATATATTGTACGCACGTATGTTTTTAA [XGTACX_site1108]	6.62
TTTTAGTTAATTCATGCATGTAAAGTTTTATTTATA [TGCATGCA_site252]	6.33
AAAAAAAAAAAAAAAGTACACACTTTTGCGTACATG [CACACA_site3097]	6.49
ATATTAATTTTTATTACACACTCTCAATTTTTATTT [CACACA_site58]	6.76
AAAATATACATAAACACACACAAAACGTTTAAGAAA [CACACA_site1071]	7.11
GTTTAACTGTTTTATACACACAATGTATCCAATAAA [CACACA_site5612]	7
